Experimental data reported in PubChem BioAssay AID588453 (National Center for Advancing Translational Sciences (NCATS), 2011).
“And” between values parts separate entries of the source, which are not always exact repeats. Identical values can stand only once. In all, about 390,000 compounds went through this assay and about 4,000 (1%) were called active. Inconclusive means that the source gave no clear call. Such entries were picked first, then a sample of the others. Calls come from the whole dose curve; as a rule, active = well fitted inhibition curve with a large enough effect; inconclusive = small, poorly fitted or top-dose-only effect; inactive = no such curve, though single readings can be large or run the other way. Where the call is inconclusive, the potency comes from a doubtful curve fit.

The molecules below were run against Thioredoxin reductase 1, cytoplasmic (Rattus norvegicus) (UniProt O89049) (assay: qHTS Assay for Inhibitors of Mammalian Selenoprotein Thioredoxin Reductase 1 (TrxR1): qHTS). Details: recombinant rTrxR1, NADPH fluorescence consumption, selenite substrate; series mostly up to 114 µM.
Outline: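 Rat TrxR1 (90 nM in the dispensed reagent) was pre-reduced with 400 uM NADPH for 5 min at room temperature, then incubated with compound for 15 min. After 400 uM selenite was added, NADPH fluorescence (Ex 340/Em 450 nm) was followed for 8 min.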
% is set by controls: 0 for no effect and ±100 for the full control effect; potency is the fitted concentration of half-maximal effect; tags give direction and shape of the fitted curve.
Note: nearly all actives have a fitted effect of over 65% in size.

Chain of UniProt O89049 (O89049 whole entry, looked up): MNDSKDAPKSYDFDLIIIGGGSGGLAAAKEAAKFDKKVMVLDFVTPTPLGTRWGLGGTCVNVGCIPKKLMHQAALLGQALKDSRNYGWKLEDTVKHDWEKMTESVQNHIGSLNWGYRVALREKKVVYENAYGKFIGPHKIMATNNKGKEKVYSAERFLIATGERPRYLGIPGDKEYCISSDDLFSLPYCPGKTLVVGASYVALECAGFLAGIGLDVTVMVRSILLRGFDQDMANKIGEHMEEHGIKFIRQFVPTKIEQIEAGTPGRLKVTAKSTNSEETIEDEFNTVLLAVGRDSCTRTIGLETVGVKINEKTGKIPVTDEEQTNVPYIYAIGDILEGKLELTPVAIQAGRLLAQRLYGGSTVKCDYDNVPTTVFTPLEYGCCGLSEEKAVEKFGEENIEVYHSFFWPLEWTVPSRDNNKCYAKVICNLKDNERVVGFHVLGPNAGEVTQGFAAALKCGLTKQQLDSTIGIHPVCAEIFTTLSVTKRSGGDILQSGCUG

| SMILES | Potency | activity change, negative = inhibition |
| --- | --- | --- |
| Cc1nn(C)c(C(=O)NC(=S)Nc2ccccc2Br)c1Cl | inconclusive: 7.08 µM [inhibitor, full curve] |  |
| Cc1ccc(S(=O)(=O)N(CC(=O)NCc2ccncc2)C2CCCCC2)cc1 | inconclusive: 70.8 µM [inhibitor, single point] |  |
| Cc1ccc(S(=O)(=O)N2CCC(C(=O)C3C(=O)CC(C)(C)CC3=O)CC2)cc1 | inactive |  |
| Cc1ccc2cc(C(c3nnnn3Cc3ccccc3)N3CCc4ccccc43)c(=O)[nH]c2c1C (stereo not drawn) | inconclusive: 31.6 µM [inhibitor, single point] |  |
| Cc1cc(Sc2nc(N)ncc2[N+](=O)[O-])ncn1 | active: 1.58 µM |  |
| O=C(COC(=O)c1cc(S(=O)(=O)N2CCOCC2)ccc1F)NCc1ccco1 | inconclusive: 70.8 µM [inhibitor, single point] |  |
| COc1cc(/C=C(/C#N)C(=O)NCc2ccccc2)cc(OC)c1OC | inconclusive: 35.5 µM [inhibitor, partial curve] |  |
| CC(C)(C)C(=O)O/N=C(\N)c1ccc([N+](=O)[O-])s1 | inactive |  |
| CCOC(=O)N1CCN(C(=S)Nc2cccc(C)c2C)CC1 | inconclusive: 56.2 µM [inhibitor, partial curve, poor fit] |  |
| COc1ccccc1NC(=O)CCn1cnc2ccccc2c1=O | inactive |  |
| COc1ccc(CNc2ccc([N+](=O)[O-])cn2)cc1 | inactive |  |
| NC(=S)N/N=C1\CC(n2nnnc2-c2ccccc2Cl)C2COC1O2 (stereo not drawn) | inconclusive: 28.2 µM [inhibitor, single point] |  |
| O=S(=O)(NCC(c1ccco1)S(=O)(=O)c1cccs1)c1ccc(F)c(C(F)(F)F)c1 (stereo not drawn) | active: 0.447 µM |  |
| COCCCNC(=O)CSc1ccsc1[N+](=O)[O-] | inconclusive: 31.6 µM [inhibitor, partial curve, poor fit] |  |
| Cc1cc(C)n(S(=O)(=O)/C=C/c2ccccc2)n1 | inconclusive: 31.6 µM [inhibitor, single point] |  |
| O=C(Nc1nc(=O)[nH]s1)c1ccccc1 |  | inactive: 21.6% [at 11.4 µM] |
| FC(F)(F)c1ccc(C2[C@H]3CN(Cc4cccnc4)[C@H](c4ccccc4)C34CC2(c2cccnc2)C4)cc1 (stereo partly drawn) | inactive |  |
| O=C1CN(C(=O)c2ccc(Br)o2)C(c2ccc(F)cc2)c2cc(F)ccc2N1 (stereo not drawn) | inconclusive: 15.8 µM [inhibitor, full curve] |  |
| COc1ccc(CCn2c(=N)c(C(=O)NC3CCCC3)cc3c(=O)n4ccccc4nc32)cc1OC | inactive |  |
| CC(Sc1ccsc1[N+](=O)[O-])C(=O)NCc1ccco1 (stereo not drawn) | active: 20 µM |  |
| O=C(c1nnsc1S(=O)(=O)c1ccc(Cl)cc1)N1CCOCC1 | inconclusive: 28.2 µM [inhibitor, partial curve, poor fit] |  |
| CCOc1cccc(/C(O)=C2/C(=O)C(=O)N(CCOC)C2c2ccco2)c1 (stereo not drawn) | inconclusive: 14.1 µM [inhibitor, partial curve, poor fit] |  |
| COc1ccc(N2C(=O)CCC(C(=O)O)C2c2ccccc2OC)cc1 (stereo not drawn) | inactive |  |

| SMILES | Potency | activity change, negative = inhibition |
| --- | --- | --- |
| COc1ccc(-n2c(=O)cc(N3CCCCCC3)[nH]c2=O)cc1 | inconclusive: 79.4 µM [inhibitor, single point] |  |
| Cc1ccc(OCCN2CCN(C(=O)CCC(=O)Nc3nnc(C)s3)CC2)cc1 | inactive |  |
| O=C(Nc1ccc(Cl)cc1)C1CCN(C(=O)c2ccco2)CC1 | inconclusive: 56.2 µM [inhibitor, partial curve, poor fit] |  |
| COc1ccccc1C(c1nnnn1C(C)(C)C)N1CCCCCC1 (stereo not drawn) | inconclusive: 39.8 µM [inhibitor, single point] |  |
| O=C(NCCCN1CCCC1)c1cc2c(Cl)nc3ccccc3c2s1 | inconclusive: 70.8 µM [inhibitor, partial curve, poor fit] |  |
| O=C(CC(Nc1cccc(Cl)c1Cl)C(=O)OCC(=O)c1cccs1)c1ccccc1 (stereo not drawn) | inconclusive: 79.4 µM [inhibitor, partial curve] |  |
| CCn1ncc(C(=O)Nc2cc(C)on2)c1C | inconclusive: 20 µM [inhibitor, single point] |  |
| COc1ccc(-n2c(C)cc(/C=N/Nc3nnc(C)n3N)c2C)cc1 | inconclusive: 89.1 µM [inhibitor, single point] |  |
| CCOC(=O)Cc1csc(NC(=S)NC(=O)c2ccc([N+](=O)[O-])cc2)n1 | inconclusive: 17.8 µM [inhibitor, single point] |  |
| Cc1nn(C)cc1C1C(C#N)=C(N)N(c2ccc(F)c([N+](=O)[O-])c2)C2=C1C(=O)CCC2 (stereo not drawn) | inconclusive: 50.1 µM [inhibitor, partial curve] |  |
| CC1(C)C(=O)Nc2ccccc2N1C(=O)Cn1ncc(Cl)c(Cl)c1=O | inconclusive: 44.7 µM [inhibitor, partial curve] |  |
| CCn1c(SCC(=O)c2cc(OC)ccc2OC)nnc1C1CC1 | inconclusive: 7.94 µM [inhibitor, single point] |  |
| CC1=C(C(=O)Nc2ccc(C)cc2C)C(c2cc(Br)ccc2F)n2ncc(C(=O)Nc3ccc(C)cc3)c2N1 (stereo not drawn) | inactive |  |
| O=S(=O)(c1cccc2c(I)cccc12)N1CCCNCC1 | inconclusive: 42.3 µM [inhibitor, single point] and inconclusive: 37.7 µM [inhibitor, partial curve, poor fit] |  |
| COc1cccc(CNC(=O)Nc2ccc3c(c2)N(C)C(=O)c2ccccc2S3)c1 | inconclusive: 20 µM [inhibitor, partial curve, poor fit] |  |
| Cc1c(N=Cc2cc3c(cc2[N+](=O)[O-])OCO3)cccc1[N+](=O)[O-] | inactive |  |
| Cc1ccc(C(C(=O)NC2CCCCC2)N(Cc2ccco2)C(=O)Cn2cnc3ccccc32)cc1 (stereo not drawn) | inconclusive: 25.1 µM [inhibitor, partial curve, poor fit] |  |
| CCOC(=O)N/N=C1\CCc2ccccc21 | inactive |  |
| Cc1ccc(-c2csc3ncn(/N=C/N(C)C)c(=O)c23)o1 | inconclusive: 56.2 µM [inhibitor, partial curve, poor fit] |  |
| Cc1ccc(C=Nc2ccc(N(C)C)cc2)o1 | inconclusive: 20 µM [inhibitor, full curve] |  |
| Cc1ccc(NC(=S)N2CCN(C(=O)c3ccccc3)CC2)c(C)c1 | inconclusive: 79.4 µM [inhibitor, single point] |  |
| COc1ccc(CCNC(=O)c2ccc(-c3ccc([N+](=O)[O-])cc3Cl)o2)cc1 | inconclusive: 63.1 µM [inhibitor, single point] |  |
| O=C(c1ccncc1)N1CCN(C2CCCCC2)CC1 | inactive |  |

| SMILES | Potency | activity change, negative = inhibition |
| --- | --- | --- |
| COc1cc2c(cc1OC)-c1cc(OCc3ccccc3Cl)nc(=O)n1CC2 | inconclusive: 39.8 µM [inhibitor, single point] |  |
| CCCCCCCCNS(=O)(=O)CCNC1CC1 | active: 44.7 µM |  |
| O=c1ccc2ccc(O)c(O)c2o1 | inconclusive: 37.7 µM [inhibitor, single point] |  |
| O=C(CCc1ccc(O)c(O)c1)N/N=C/c1ccc2c(c1)OCO2 | inconclusive: 20 µM [inhibitor, full curve] |  |
| CCOc1ccc(OCC)c(NC(=O)C2CCN(S(=O)(=O)c3cccnc3)CC2)c1 | inactive |  |
| O=C(Nc1cc(-c2ccc(F)c(F)c2)no1)c1ccccc1F | inactive |  |
| CCN1C(=O)[C@@H]2[C@@H](c3ccc(-c4cc(C(C)=O)cs4)cc3)N3CCC[C@@]3(C(=O)OC)[C@@H]2C1=O | inconclusive: 89.1 µM [inhibitor, partial curve, poor fit] |  |
| O=C(CN1CCCCCC1)Nc1ccc(Br)cn1 | inconclusive: 79.4 µM [inhibitor, partial curve] |  |
| Cc1ccc(C)c2[nH]c(=O)c(CN(CCN3CCOCC3)Cc3nnnn3CC3CCCO3)cc12 (stereo not drawn) | inconclusive: 20 µM [inhibitor, partial curve] |  |
| O=C(COC(=O)CCS(=O)(=O)c1ccccc1)Nc1ccccc1 | active: 44.7 µM |  |
| COC(=O)c1cc(C)nc2c1c(=O)nc(SCc1cccc(C(F)(F)F)c1)n2C1CC1 | inactive |  |
| Cc1ccccc1NC(=O)c1ccc(S(=O)(=O)N2CCCC2)cc1 | inactive |  |
| O=C(C1CCC(CNS(=O)(=O)c2cccs2)CC1)N1CCN(c2ccc(Cl)cc2)CC1 (stereo not drawn) | inactive |  |
| O=C(NC1CCC(O)CC1)c1cc(-c2ccco2)nc2ccccc12 (stereo not drawn) | inconclusive: 35.5 µM [inhibitor, partial curve] |  |
| Cc1c(C(O)CN2CCC(C(N)=O)CC2)c2ccccc2n1C (stereo not drawn) | inconclusive: 10 µM [inhibitor, full curve, poor fit] |  |
| COc1ccc(C(=O)CSc2nnc(-c3ccco3)c(-c3ccco3)n2)cc1 | active: 8.91 µM |  |
| CCC(=O)Nc1cccc(NC(=S)NC(=O)c2ccc(C)cc2)c1 | inconclusive: 22.4 µM [inhibitor, full curve] |  |
| Cc1cc(=O)oc2c3c(cc(OCC(=O)NC(Cc4ccc(Cl)cc4)C(=O)O)c12)OC(C)(C)CC3 (stereo not drawn) | inconclusive: 89.1 µM [inhibitor, single point] |  |
| CC(=O)NCCc1c[nH]c2ccc(O)cc12 | inconclusive: 21.2 µM [inhibitor, partial curve, poor fit] |  |
| CC1CCN(c2nn3c(=O)c(C(=O)NCCc4ccc(Cl)cc4)cnc3s2)CC1 | inactive |  |
| CCCC(=O)Nc1ccc(NC(=S)NC(=O)c2cccs2)cc1 | inconclusive: 39.8 µM [inhibitor, partial curve] |  |
| O=C(N1CCN(Cc2ccccc2)CC1)C12CC3CC(CC(C3)C1)C2 | inconclusive: 3.55 µM [inhibitor, partial curve, poor fit] |  |
